In paper PMC9513894 one finds binding data, which are given here for 1 molecule.

The chains behind the UniProt entries cited, without tags or fusion partners.
UniProt P45974: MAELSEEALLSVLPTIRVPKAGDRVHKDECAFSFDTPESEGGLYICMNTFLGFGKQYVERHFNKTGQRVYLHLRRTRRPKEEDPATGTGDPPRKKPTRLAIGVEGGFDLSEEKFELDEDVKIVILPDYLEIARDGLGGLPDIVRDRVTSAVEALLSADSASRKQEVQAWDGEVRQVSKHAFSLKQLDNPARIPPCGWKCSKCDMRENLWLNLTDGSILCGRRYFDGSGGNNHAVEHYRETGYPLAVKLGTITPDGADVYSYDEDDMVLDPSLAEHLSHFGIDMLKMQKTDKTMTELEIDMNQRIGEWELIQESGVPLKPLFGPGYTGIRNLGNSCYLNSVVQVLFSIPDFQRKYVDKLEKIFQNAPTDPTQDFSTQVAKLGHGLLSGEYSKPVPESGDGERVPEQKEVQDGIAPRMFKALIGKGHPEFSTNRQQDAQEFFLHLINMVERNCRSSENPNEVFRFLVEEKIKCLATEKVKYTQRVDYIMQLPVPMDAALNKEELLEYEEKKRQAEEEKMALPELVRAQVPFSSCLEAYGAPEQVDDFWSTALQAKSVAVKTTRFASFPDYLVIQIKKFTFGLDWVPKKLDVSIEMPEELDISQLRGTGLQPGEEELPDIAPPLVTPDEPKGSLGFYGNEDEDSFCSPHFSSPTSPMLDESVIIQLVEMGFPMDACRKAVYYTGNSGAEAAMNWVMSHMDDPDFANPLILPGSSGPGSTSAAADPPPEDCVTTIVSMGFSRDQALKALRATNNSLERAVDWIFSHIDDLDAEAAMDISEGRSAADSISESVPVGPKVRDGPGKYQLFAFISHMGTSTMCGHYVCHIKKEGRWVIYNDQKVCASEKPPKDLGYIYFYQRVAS
UniProt Q14694: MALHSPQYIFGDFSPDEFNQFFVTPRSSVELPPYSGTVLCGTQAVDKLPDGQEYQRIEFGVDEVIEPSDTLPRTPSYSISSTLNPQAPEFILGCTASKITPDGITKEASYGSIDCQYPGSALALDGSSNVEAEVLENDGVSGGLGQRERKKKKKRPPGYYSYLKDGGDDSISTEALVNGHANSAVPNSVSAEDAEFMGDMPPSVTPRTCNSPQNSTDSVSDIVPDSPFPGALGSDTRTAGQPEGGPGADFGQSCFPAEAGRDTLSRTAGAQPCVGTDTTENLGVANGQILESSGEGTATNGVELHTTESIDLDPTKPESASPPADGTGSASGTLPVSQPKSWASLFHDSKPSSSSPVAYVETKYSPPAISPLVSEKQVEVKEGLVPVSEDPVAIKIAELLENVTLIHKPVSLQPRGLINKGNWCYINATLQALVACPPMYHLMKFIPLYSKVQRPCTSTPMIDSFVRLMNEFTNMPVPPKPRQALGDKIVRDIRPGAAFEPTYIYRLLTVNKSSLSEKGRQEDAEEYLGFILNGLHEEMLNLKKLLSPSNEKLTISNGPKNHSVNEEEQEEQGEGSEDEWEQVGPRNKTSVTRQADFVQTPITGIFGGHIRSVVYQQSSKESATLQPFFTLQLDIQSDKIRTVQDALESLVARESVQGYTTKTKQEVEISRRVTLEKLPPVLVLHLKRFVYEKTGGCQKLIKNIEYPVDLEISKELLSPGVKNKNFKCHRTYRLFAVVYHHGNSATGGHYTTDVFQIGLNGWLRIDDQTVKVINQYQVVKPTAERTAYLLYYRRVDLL

No constants are given. Whether binding was seen depends on the method and setting. In cells and extracts the contact can be indirect. Some entries that bind do so weakly or less than the wild type. Where a sequence is shown, tags or fusion partners need not be part of it.

Common to all, as to test: co-IP; Flag-tagged USPs and HA-HDAC7 transfected into HEK-293T cells; anti-Flag beads (4 °C, 4 h; washed 4 times with NETN buffer); HA-HDAC7 detected by immunoblot
(In general: A western blot detects proteins with antibodies after separation by electrophoresis.)

For one test, the target named is T1, Flag-USP2 (UniProt O75604).
T1 sequence: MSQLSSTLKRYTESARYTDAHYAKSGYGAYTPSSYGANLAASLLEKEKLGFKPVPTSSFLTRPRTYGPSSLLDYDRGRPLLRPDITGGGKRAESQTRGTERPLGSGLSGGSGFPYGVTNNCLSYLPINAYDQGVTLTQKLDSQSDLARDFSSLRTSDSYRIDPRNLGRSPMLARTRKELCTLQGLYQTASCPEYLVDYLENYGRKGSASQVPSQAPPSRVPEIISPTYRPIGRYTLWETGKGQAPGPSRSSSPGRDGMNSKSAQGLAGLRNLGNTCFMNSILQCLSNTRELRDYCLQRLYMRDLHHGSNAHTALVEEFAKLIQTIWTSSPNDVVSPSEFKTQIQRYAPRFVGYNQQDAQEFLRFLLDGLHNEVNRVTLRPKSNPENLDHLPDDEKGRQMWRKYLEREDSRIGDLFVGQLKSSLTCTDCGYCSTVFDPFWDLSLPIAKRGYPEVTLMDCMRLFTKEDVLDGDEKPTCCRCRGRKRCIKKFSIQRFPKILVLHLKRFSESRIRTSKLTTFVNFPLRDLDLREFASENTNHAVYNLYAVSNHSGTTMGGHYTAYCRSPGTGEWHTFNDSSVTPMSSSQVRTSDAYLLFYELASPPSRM

A further test has as its target T2, Flag-USP22 (UniProt Q9UPT9).
T2 sequence: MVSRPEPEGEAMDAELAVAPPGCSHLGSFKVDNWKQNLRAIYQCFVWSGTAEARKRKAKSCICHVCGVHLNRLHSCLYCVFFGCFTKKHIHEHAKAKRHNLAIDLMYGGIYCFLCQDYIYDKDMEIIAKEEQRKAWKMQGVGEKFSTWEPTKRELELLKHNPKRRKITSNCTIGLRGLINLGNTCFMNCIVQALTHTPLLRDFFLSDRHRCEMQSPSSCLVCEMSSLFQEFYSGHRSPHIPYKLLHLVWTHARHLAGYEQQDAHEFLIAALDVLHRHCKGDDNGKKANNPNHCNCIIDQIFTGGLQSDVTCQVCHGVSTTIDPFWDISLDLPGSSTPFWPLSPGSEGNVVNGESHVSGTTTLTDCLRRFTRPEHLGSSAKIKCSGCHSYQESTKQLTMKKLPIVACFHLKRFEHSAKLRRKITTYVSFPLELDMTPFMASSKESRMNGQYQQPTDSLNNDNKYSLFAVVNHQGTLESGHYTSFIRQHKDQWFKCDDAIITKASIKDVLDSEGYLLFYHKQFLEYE

For the next test, the target named is Flag-USP5 (UniProt P45974).
A further test addresses T3, Flag-USP4 (UniProt Q13107).
T3 sequence: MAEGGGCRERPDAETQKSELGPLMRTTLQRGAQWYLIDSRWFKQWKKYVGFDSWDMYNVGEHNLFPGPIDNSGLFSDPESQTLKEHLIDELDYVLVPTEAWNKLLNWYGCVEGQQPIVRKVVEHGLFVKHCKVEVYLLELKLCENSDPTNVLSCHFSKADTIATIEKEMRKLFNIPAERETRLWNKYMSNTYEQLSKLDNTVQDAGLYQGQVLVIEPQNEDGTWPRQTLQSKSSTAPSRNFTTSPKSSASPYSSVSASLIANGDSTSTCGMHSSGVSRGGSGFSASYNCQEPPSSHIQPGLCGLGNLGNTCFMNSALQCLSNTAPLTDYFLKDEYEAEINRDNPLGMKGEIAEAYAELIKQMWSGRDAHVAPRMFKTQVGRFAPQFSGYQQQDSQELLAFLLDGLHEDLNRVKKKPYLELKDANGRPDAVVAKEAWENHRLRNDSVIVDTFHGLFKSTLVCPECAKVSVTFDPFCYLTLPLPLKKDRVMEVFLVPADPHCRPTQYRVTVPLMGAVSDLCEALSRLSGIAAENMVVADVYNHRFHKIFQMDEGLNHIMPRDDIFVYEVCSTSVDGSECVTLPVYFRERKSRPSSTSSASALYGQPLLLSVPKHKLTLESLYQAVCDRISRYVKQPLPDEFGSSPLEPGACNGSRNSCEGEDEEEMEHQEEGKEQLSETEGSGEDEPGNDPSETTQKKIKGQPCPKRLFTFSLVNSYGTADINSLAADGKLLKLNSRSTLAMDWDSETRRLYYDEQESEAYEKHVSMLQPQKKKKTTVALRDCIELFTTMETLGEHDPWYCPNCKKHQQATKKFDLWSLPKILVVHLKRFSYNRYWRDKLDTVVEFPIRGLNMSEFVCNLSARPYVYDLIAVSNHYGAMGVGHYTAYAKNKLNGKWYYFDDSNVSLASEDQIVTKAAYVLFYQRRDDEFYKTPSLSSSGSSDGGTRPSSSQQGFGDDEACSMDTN

The target in test [1] is Flag-USP10 (ubiquitin-specific peptidase 10) (UniProt Q14694).

B1: HA-HDAC7 (histone deacetylase 7) (enzyme, UniProt Q8WUI4 1-952)
chain: MDLRVGQRPPVEPPPEPTLLALQRPQRLHHHLFLAGLQQQRSVEPMRLSMDTPMPELQVGPQEQELRQLLHKDKSKRSAVASSVVKQKLAEVILKKQQAALERTVHPNSPGIPYRTLEPLETEGATRSMLSSFLPPVPSLPSDPPEHFPLRKTVSEPNLKLRYKPKKSLERRKNPLLRKESAPPSLRRRPAETLGDSSPSSSSTPASGCSSPNDSEHGPNPILGSEALLGQRLRLQETSVAPFALPTVSLLPAITLGLPAPARADSDRRTHPTLGPRGPILGSPHTPLFLPHGLEPEAGGTLPSRLQPILLLDPSGSHAPLLTVPGLGPLPFHFAQSLMTTERLSGSGLHWPLSRTRSEPLPPSATAPPPPGPMQPRLEQLKTHVQVIKRSAKPSEKPRLRQIPSAEDLETDGGGPGQVVDDGLEHRELGHGQPEARGPAPLQQHPQVLLWEQQRLAGRLPRGSTGDTVLLPLAQGGHRPLSRAQSSPAAPASLSAPEPASQARVLSSSETPARTLPFTTGLIYDSVMLKHQCSCGDNSRHPEHAGRIQSIWSRLQERGLRSQCECLRGRKASLEELQSVHSERHVLLYGTNPLSRLKLDNGKLAGLLAQRMFVMLPCGGVGVDTDTIWNELHSSNAARWAAGSVTDLAFKVASRELKNGFAVVRPPGHHADHSTAMGFCFFNSVAIACRQLQQQSKASKILIVDWDVHHGNGTQQTFYQDPSVLYISLHRHDDGNFFPGSGAVDEVGAGSGEGFNVNVAWAGGLDPPMGDPEYLAAFRIVVMPIAREFSPDLVLVSAGFDAAEGHPAPLGGYHVSAKCFGYMTQQLMNLAGGAVVLALEGGHDLTAICDASEACVAALLGNRVDPLSEEGWKQKPNLNAIRSLEAVIRVHSKYWGCMQRLASCPDSWVPRVPGADKEEVEAVTALASLSVGILAEDRPSEQLVEEEEPMNL
As to B1, the binding entry with Flag-USP2 is on record as “no binding”; with Flag-USP22, “no binding”; with Flag-USP5, “no binding”; in the test with Flag-USP4 it was “no binding”; in test [1], “binds”.
